According to the RNAGym collection of RNA variant scans (doi:10.7554/elife.90254):
Read counts are not given, so values of variants with three or more changes are uncertain.

B1: OR4K15 (parent)
chain: GUUAACGGUCAUAGGCCAUGGAAACUAGGAGCACCAUUUCGCUGCCAGUGAAGAAAUGAACAAAGAAAAUCUGGGCCAGGCAGGCAUCAAAAGAAAUAGUCUUGCGCUCAACCAGAAAGUCUGUAAUCAUUUUAAGGGUA

Variants of: B1
Assay: self-cleavage, relative activity (ratio to wild type); higher = more cleavage; in vitro, sequencing; the parent is a self-cleaving ribozyme

Variant | self-cleavage
A54G A118G U133C | 1.88
A52G A63G C76U | 0.1
A51G A67G U130C | 1.19
A51U G106A A118G | 0.01
A51G A67U U103A U120A A126G | 0.91
A52U A64G U132C | 0.34
A51U A54U A59G A60G A62G | 0.75
A51G A82U U139C | 0.18
A54G A56G A66G A68G A69G A125G | 0.22
A54G A69G A111G A116G | 0.02
A52G A55G U127C | 0.73
A52G U57C A91G | 1.26
A52G A62G G74C A95G U139C | 0.26
A54C A94G A118U | 0
A52G A66G A68G | 1.2
A54G A68G A82G A92G C105U A118G | 0.02
A52G A54G A78U A86C A90G | 0.21
A52U A63G A89G A91G | 1.75
A52U U70A U132A | 0.89
A51U A55G A62G | 1.29
A52C A56U A68U | 1.49

Variant | self-cleavage
A54G A59G C121U | 1.72
A54U A69G A82G A110G A111G U127C | 0.01
A54U A86G U100A | 0.66
A51U A64G A66G A82U A90G | 0.09
A54G A62G A95G | 1.16
A51G G74A C81G A82G | 0.28
A52G A54G A56U A90G | 1.18
A51G U87C U131C | 0.85
A52G A54C A110G | 0.03
A52U A86G A95G C113U | 0.03
A52G A62G G79A | 0.18
A51U U72A U124A | 0.14
A52G U108C A111G | 0.04
A54G A56G A117U U122C | 0.58
A52G A54G A92G U102C U131C | 2.27
A54G A69G U122A | 1.2
A51G A69G A95G A134G | 1.44
A52G A68U A96G | 1.11
A54G U70C A91G | 0.6
A54G A68G C113G | 0.05
A52G U102A A140U | 0.87

Variant | self-cleavage
A51G A98U A118G U131C | 2.17
A52U A96U U97C A111G U122C | 0
A51G A98G C109U | 0.13
A52U A95G G123A | 1.88
A51G U87G A114U | 0.01
A54G A59G A114G A116G | 0.44
A51G U72A U87C A91G | 0.17
A52G A96G U124C | 1.13
G53U U72C A111U | 0.01
A54G U100C A140G | 1.71
A54U A86U U87G | 1.05
A51G A94U A129G | 0.76
A52G A54C A64G U131C | 1.6
A52G A55G A86U U102C | 1.36
A54G A90G U103G A111G | 0.01
A52G A126C U127A | 0.75
A51G A90G U100G A116U | 0.4
G53A A86U A116G A126G | 0.46
A52G A86U A96G A116C | 0.21
A52G A55G A56G A63G A82G G84A U103A U122C A125G | 0.14
A52G A69G A135G | 1.21

Variant | self-cleavage
A51G A111G G115U | 0.01
A52G A64G G74A U100C | 0.28
A52G A67G A68G A96G U100C U108A A140G | 0.01
A52G G73A C76U U103C A116U | 0.01
A52G A68G A110G U127C | 0.08
A51G U103C U122C A129G A134G | 0.05
A51U A56G U122A U127A A140U | 0.95
A54G A64G A140G | 1.34
A54U A66G A69G | 0.09
A52U A56G A86G U100C A110G | 0.19
A54G C71A A129G | 0.18
A52U A63G A68G A86G A89G A91G | 0.46
A52U A69U U130C | 0.79
A52G A55U A78G A91G A92G | 0.03
A51U A59G A86U A94G | 1.48
A52G A78G U87A | 0.2
A52G U70C A89G U103C | 0.3
A54U A68G A117G | 1.45
A52G A82U U131C | 0.19
A54G A110U U120C | 0.47
